From article PMC4336329 (PLoS ONE, 2015)
Screen size: about 310,000 compounds; about 2,200 (0.71%) showed an effect of 50% or more. Effects have a minus sign here. This is one part of the list.

These molecules were tested against human ether-à-go-go-related gene (hERG) potassium channel (human, UniProt Q12809) (assay: primary screen, population patch clamp on CHO cells stably expressing hERG).
Sequence of human ether-à-go-go-related gene (hERG) potassium channel (Q12809 whole entry, looked up): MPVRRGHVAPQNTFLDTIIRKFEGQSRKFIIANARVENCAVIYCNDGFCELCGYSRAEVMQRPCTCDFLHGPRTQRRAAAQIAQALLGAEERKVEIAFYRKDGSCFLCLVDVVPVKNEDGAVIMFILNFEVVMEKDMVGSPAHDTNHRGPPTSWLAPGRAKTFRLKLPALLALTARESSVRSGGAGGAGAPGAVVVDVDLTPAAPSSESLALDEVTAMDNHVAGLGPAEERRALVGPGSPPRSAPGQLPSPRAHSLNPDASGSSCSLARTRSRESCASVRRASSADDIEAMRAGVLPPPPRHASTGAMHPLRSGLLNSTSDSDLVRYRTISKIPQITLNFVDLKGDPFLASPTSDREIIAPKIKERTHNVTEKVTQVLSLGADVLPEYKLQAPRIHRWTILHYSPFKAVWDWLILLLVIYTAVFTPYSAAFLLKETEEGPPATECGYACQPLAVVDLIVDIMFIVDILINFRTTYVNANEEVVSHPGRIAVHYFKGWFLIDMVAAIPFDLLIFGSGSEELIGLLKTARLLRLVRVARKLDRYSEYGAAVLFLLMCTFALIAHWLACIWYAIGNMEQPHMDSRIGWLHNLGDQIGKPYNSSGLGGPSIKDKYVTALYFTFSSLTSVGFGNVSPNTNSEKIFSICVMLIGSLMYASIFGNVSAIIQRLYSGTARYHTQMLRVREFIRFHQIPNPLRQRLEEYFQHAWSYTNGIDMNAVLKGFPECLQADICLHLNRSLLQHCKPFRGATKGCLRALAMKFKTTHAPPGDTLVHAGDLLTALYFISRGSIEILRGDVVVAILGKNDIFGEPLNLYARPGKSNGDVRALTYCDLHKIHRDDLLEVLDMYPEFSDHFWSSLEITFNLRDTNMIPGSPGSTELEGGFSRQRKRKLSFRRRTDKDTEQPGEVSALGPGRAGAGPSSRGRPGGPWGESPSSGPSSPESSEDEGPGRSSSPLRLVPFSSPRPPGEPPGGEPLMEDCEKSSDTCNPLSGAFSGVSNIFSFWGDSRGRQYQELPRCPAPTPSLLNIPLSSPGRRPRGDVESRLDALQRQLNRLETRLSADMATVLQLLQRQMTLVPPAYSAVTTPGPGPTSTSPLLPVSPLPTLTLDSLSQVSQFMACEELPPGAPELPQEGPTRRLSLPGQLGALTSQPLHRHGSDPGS

Row | Compound | hERG current change (%, negative = inhibition) at 1uM
1 | Cc1noc(C)c1S(=O)(=O)Nc1ccc(C(=O)N2CCCCC2)cc1 | 1.06%
2 | Cc1ccc(NC(=O)OCc2cn(-c3ccc(Cl)cc3)nn2)cc1 | -9.31%
3 | COc1ccc(C(C)NC(=O)c2ccncc2)cc1 (stereo not shown) | 10.8%
4 | COc1ccc(NC(=O)C(NC(=O)c2ccc(C)cc2)c2ccccc2)cc1 (stereo not shown) | 15.3%
5 | Cc1ccccc1NC(=O)c1ccccc1NC(=O)Cc1cccc2ccccc12 | 15.1%
6 | Cc1c(NC(=O)CSc2nnc3sc4ccccc4n23)c(=O)n(-c2ccccc2)n1C | 10.3%
7 | O=C(O)c1ccc(Cl)cc1NC(=O)C1CCCO1 (stereo not shown) | -0.265%
8 | CCOC(=O)C1CCCN(C/C=C/c2ccccc2)C1 (stereo not shown) | 9.81%
9 | CCOC(=O)Cc1csc(NC(=O)c2c(-c3ccccc3)noc2C)n1 | 1.56%
10 | CCOC(=O)c1nnn2c1nc(N1CCN(c3ccccc3)CC1)c1ccccc12 | -0.764%
11 | N#Cc1cc([N+](=O)[O-])ccc1NC(=O)CSc1n[nH]c(=O)n1C1CC1 | 9.63%
12 | C=CCc1c(C)nc2ccc(C(=O)OCC)cc2c1Cl | 13.9%
13 | Cn1nc(C(F)(F)F)c(C#N)c1N1CCN(c2ccccn2)CC1 | 4.67%
14 | COc1ccc2c(c1)N1CCN=C1N2C.Cl | 5.26%
15 | CCOC(=O)c1cc(-c2nnc(-c3cc(OC)c(OC)c(OC)c3)o2)c(C)nc1C | 7.43%
16 | CCCNC(=O)c1c[nH]c2ccc(S(=O)(=O)N(C)c3ccc(OCC)cc3)cc2c1=O | 4.72%
17 | CCNC(=S)NNC(=O)c1cc(-c2ccc(OCC)cc2)nc2ccccc12 | 4.57%
18 | CC(=C/c1ccco1)/C=N/NC(=O)c1ccncc1 | 7.15%
19 | CN(C)C1=NC[C@H](Cc2ccccc2)N1CC1CCCC1 | -0.122%
20 | O=C(CSc1nc(=O)n2ccccc2n1)NCc1ccc2c(c1)OCO2 | -8.25%

Row | Compound | hERG current change (%, negative = inhibition) at 1uM
21 | CCOc1ccc(CCNC(=O)C2CC(=O)N(CCc3ccc(OC)c(OC)c3)C2)cc1OCC (stereo not shown) | 8.71%
22 | O=C(NCc1ccccn1)C1CCN(S(=O)(=O)c2ccc(Br)cc2)CC1 | 4.9%
23 | C=CCN(c1ccccc1C(=O)NCC(=O)O)S(=O)(=O)c1ccc(C)cc1 | 12.3%
24 | N#CC1=C(N)Oc2[nH]c(=S)[nH]c(=O)c2C12C(=O)Nc1ccccc12 (stereo not shown) | 9.66%
25 | CCOc1ccc(N(CC(=O)NCc2ccccc2Cl)S(=O)(=O)c2c(C)[nH]c(=O)[nH]c2=O)cc1 | 13.4%
26 | N/C(=N\N=C\c1ccc(O)cc1O)N[N+](=O)[O-] | 8.72%
27 | O=C(NCCc1ccccc1)c1ccc([N+](=O)[O-])cc1 | 6.33%
28 | CC[N+]1(C)[C@@H]2CC[C@H]1CC(OC(=O)[C@H]1CCC(C(=O)OC3C[C@H]4CC[C@@H](C3)[N+]4(C)CC)(c3ccccc3)c3ccccc31)C2.[Cl-] (stereo partly shown) | 12.4%
29 | CCc1ccc(C2C(C#N)=C(N)N(N(C)C)C3=C2C(=O)CCC3)s1 (stereo not shown) | -5.8%
30 | O=C(Nc1nccs1)c1ccc(N2C(=O)C3CCCCC3C2=O)cc1 (stereo not shown) | 10.1%
31 | CN(C)/C=C/C(=O)c1ccc(F)cc1 | 4.7%
32 | Cc1cc(-n2cnnn2)cc(C)c1S(=O)(=O)NCCOc1ccccc1 | -5.02%
33 | O=C(NCCc1ccc(Cl)cc1)c1ccc2nc[nH]c2c1 | 6.99%
34 | O=S1(=O)CC(O)C(Nc2ccccc2)C1 (stereo not shown) | 10.2%
35 | COC(=O)c1sccc1NC(=O)c1ccnn1C | 13.1%
36 | O=C(CCCn1cc([N+](=O)[O-])cn1)N1CCCCC1 | 10.1%
37 | CN(C)c1nn(C(=O)Nc2cccc(C(F)(F)F)c2)cc1-c1ccccc1 | 11.7%
38 | CCn1c(SCC(=O)N2CCN(c3ccc(F)cc3)CC2)nc2ccccc2c1=O | -35.4%
39 | COc1ccc2[nH]c(=O)cc(C(=O)O)c2c1 | 6.54%
40 | CC1CCCN(C(=O)c2cccc(S(=O)(=O)Nc3cc(C(F)(F)F)ccc3Cl)c2)C1 (stereo not shown) | 6.51%

Row | Compound | hERG current change (%, negative = inhibition) at 1uM
41 | CC1CCCCC1NC(=O)c1cncc(Br)c1 (stereo not shown) | 16%
42 | O=C(Nc1nnc(S(=O)(=O)N2CCCC2)s1)c1ccccc1F | 12.3%
43 | CC(=O)Cn1ncc(N2CCCCC2)c(Cl)c1=O | 15.4%
44 | Cc1ccc(S(=O)(=O)N(C)c2ccc(OC(=O)c3ccc(=O)[nH]c3)cc2)cc1 | 9.07%
45 | O=C1/C(=C/c2cccs2)Sc2ccccc21 | 10.5%
46 | CCN(CC)CCOC(=O)c1ccc2c(c1)OCCO2.Cl | 0.928%
47 | C(=Nc1ccc(N2CCOCC2)cc1)c1c[nH]c2ccccc12 | 14.6%
48 | Cc1c(C(=O)N2CCC3(CC2)OCCO3)oc2ccccc12 | -4.89%
49 | CCOC(=O)N1CCN(C(=O)C(C)n2nc(C)n3c(cc4sccc43)c2=O)CC1 (stereo not shown) | 5.91%
50 | Nc1nonc1-n1nnc(C(=O)N/N=C/c2cccc(Cl)c2)c1-c1ccc2c(c1)OCO2 | -1.95%
51 | CC(C)CNC1=CC(=O)CC(c2ccco2)C1 (stereo not shown) | 14.5%
52 | CC1=NN(c2ccccc2)C(=O)C1(C)C | 8.96%
53 | COc1ccc(N2C(=O)CSC2c2cccc(F)c2)c(OC)c1 (stereo not shown) | 11.7%
54 | CCOC(=O)c1c(CN2CCN(c3ccccc3)CC2)oc2ccc(O)cc12 | 12.6%
55 | Cc1ccc(S(=O)(=O)CCC(=O)OCC(=O)N2CCN(S(=O)(=O)c3ccccc3)CC2)cc1 | 9.95%
56 | Cc1noc2ncnc(Sc3ccc(Cl)cc3)c12 | 14.4%
57 | O=C(COc1ccc(Cl)cc1)NNC(=O)CSc1nncs1 | 13.1%
58 | COc1ccccc1CC(=O)NN1C(=O)c2ccccc2C1=O | 14.6%
